Drawing on the supplement of paper PMC4967469, this text covers AUC and IC50 for 35 cell lines.

A lower IC50 marks a more sensitive line; where the fit passes the top or lowest dose, that dose stands as a limit. The AUC spans the tested range (256-fold, ending at the top dose) of the same fit; the more sensitive the line, the further below 1. An inferred top dose was derived from the fitted curves, not read from the paper. For some assays here: An entry number marks a drug with two screens in the source, which often give different values. Some results are limits rather than exact numbers.

Compound in the first test: Cc1cc(N2CCOCC2)cc2[nH]c(-c3c(NC[C@@H](O)c4cccc(Cl)c4)cc[nH]c3=O)nc12 [BMS-536924]
As to the kind of experiment: Viability of human cancer cell lines after 72 h of drug (GDSC screen). Particulars: top dose 4 µM; screen: GDSC drug entry 1091; top dose inferred. As for the experimental part: (§1)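 Human cancer cell lines in 384-well plates, medium with 10% serum, drug for 72 h over a 256-fold dose range (nine 2-fold or five 4-fold steps up to the top dose). Adherent lines were fixed and stained with the nucleic acid dye Syto60, suspension lines read with resazurin; signal relative to control wells, capped at 0 and 100%. One two-parameter sigmoid per drug and line, fitted in a mixed model over all curves with the slope shared within a line.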
On to GP5d (large intestine, adherent), for which the AUC came to 0.917 and the IC50 is above 4000 nM.

As for H2810 (mesothelioma, adherent), the AUC was found to be 0.878 and the IC50 was above 4000 nM.

On to IM-95 (stomach, adherent), for which the AUC was 0.949 and the IC50 was above 4000 nM.

In the case of OVMIU (ovary, adherent), the AUC is 0.888 and the IC50 was above 4000 nM.

On to “P12-ICHIKAWA (T-cell lymphoblastic leukaemia, suspension)”, for which the AUC was 0.994 and the IC50 was above 4000 nM.

Regarding PA-TU-8902 (pancreas, adherent), the AUC was 0.814 and the IC50 was found to be 2650 nM.

In the case of PANC-03-27 (pancreas, adherent), the AUC was 0.98 and the IC50 was above 4000 nM.

In the case of PANC-04-03 (pancreas, adherent), the AUC was 0.881 and the IC50 is above 4000 nM.

Regarding “PC-3 [JPC-3] (lung adenocarcinoma, adherent)”, the AUC is 0.921 and the IC50 was above 4000 nM.

Consider PCI-15A (head and neck, adherent), for which the AUC was found to be 0.97 and the IC50 is above 4000 nM.

Regarding PE/CA-PJ15 (head and neck, adherent), the AUC stood at 0.966 and the IC50 was above 4000 nM.

Take RH-41 (rhabdomyosarcoma, adherent): the AUC worked out at 0.525 and the IC50 came to 289 nM.

For RPMI-2650 (head and neck, adherent), the AUC came to 0.849 and the IC50 was found to be 3390 nM.

With SAS (head and neck, adherent), the AUC was 0.915 and the IC50 is above 4000 nM.

On to “SBC-5 (small cell lung carcinoma, adherent)”, for which the AUC turned out to be 0.987 and the IC50 was above 4000 nM.

In the case of SCC-9 (head and neck, adherent), the AUC was determined as 0.795 and the IC50 amounted to 2470 nM.

As for SCC-25 (head and neck, adherent), the AUC was found to be 0.865 and the IC50 was above 4000 nM.

Consider SISO (cervix, adherent), for which the AUC was 0.886 and the IC50 was above 4000 nM.

In the case of SK-HEP-1 (liver, adherent), the AUC was 0.961 and the IC50 was above 4000 nM.

For SKG-IIIa (cervix, adherent), the AUC turned out to be 0.872 and the IC50 was above 4000 nM.

Consider SNU-182 (liver, adherent), for which the AUC is 0.892 and the IC50 is above 4000 nM.

Turning to SNU-423 (liver, adherent), the AUC came to 0.946 and the IC50 is above 4000 nM.

In the case of SNU-449 (liver, adherent), the AUC is 0.921 and the IC50 was above 4000 nM.

Consider SUIT-2 (pancreas, adherent), for which the AUC came to 0.923 and the concentration for half-maximal inhibition (IC50) is above 4000 nM.

As for SW13 (adrenal gland, adherent), the AUC is 0.894 and the IC50 is above 4000 nM.

As to SW780 (bladder, adherent), the AUC came out at 0.867 and the IC50 is above 4000 nM.

Take SW1417 (large intestine, adherent): the AUC amounted to 0.92 and the IC50 was above 4000 nM.

As to SiHa (cervix, adherent), the AUC worked out at 0.971 and the IC50 is above 4000 nM.

In the case of T98G (glioma, adherent), the AUC turned out to be 0.877 and the IC50 was determined as 3500 nM.

As to T-T (oesophagus, adherent), the AUC stood at 0.884 and the IC50 is above 4000 nM.

For the cell line TGBC11TKB (stomach, adherent), the AUC came to 0.981 and the IC50 is above 4000 nM.

Take U-118-MG (glioma, adherent): the AUC turned out to be 0.97 and the IC50 was above 4000 nM.

Turning to WM793B (melanoma, adherent), the AUC was determined as 0.982 and the concentration for half-maximal inhibition (IC50) was above 4000 nM.

Regarding YAPC (pancreas, adherent), the AUC came to 0.802 and the IC50 was found to be 2560 nM.

In the case of YKG-1 (glioma, adherent), the AUC came to 0.952 and the IC50 was above 4000 nM.

Compound in a further test: O=C1NC(=O)c2c1c(-c1ccccc1Cl)cc1[nH]c3ccc(O)cc3c21 [Wee1 inhibitor 681640]
The test is described as above. Conditions: top dose 2 µM; top dose inferred. As for the experimental part: as §1
On to OVMIU (ovary, adherent), for which the AUC amounted to 0.885 and the IC50 was above 2000 nM.

On to “P12-ICHIKAWA (T-cell lymphoblastic leukaemia, suspension)”, for which the AUC amounted to 0.993 and the IC50 was above 2000 nM.

For the cell line PA-TU-8902 (pancreas, adherent), the AUC was 0.965 and the IC50 is above 2000 nM.

With PANC-03-27 (pancreas, adherent), the AUC is 0.839 and the IC50 turned out to be 1240 nM.

In the case of PANC-04-03 (pancreas, adherent), the AUC came out at 0.965 and the IC50 was above 2000 nM.

Consider “PC-3 [JPC-3] (lung adenocarcinoma, adherent)”, for which the AUC is 0.963 and the IC50 is above 2000 nM.

As for PCI-15A (head and neck, adherent), the AUC came out at 0.362 and the IC50 came to 51.9 nM.

PE/CA-PJ15 (head and neck, adherent): the AUC turned out to be 0.869 and the IC50 was above 2000 nM.

Take RH-41 (rhabdomyosarcoma, adherent): the AUC worked out at 0.945 and the IC50 was above 2000 nM.

As to RPMI-2650 (head and neck, adherent), the AUC came out at 0.927 and the IC50 was above 2000 nM.

For SAS (head and neck, adherent), the AUC was 0.884 and the half-maximal inhibitory concentration (IC50) is above 2000 nM.

Regarding “SBC-5 (small cell lung carcinoma, adherent)”, the AUC stood at 0.988 and the IC50 was above 2000 nM.

As for SCC-9 (head and neck, adherent), the AUC was 0.925 and the 50% inhibitory concentration (IC50) is above 2000 nM.

In the case of SCC-25 (head and neck, adherent), the AUC came to 0.966 and the IC50 is above 2000 nM.

Regarding SISO (cervix, adherent), the AUC is 0.988 and the IC50 is above 2000 nM.

As to SK-HEP-1 (liver, adherent), the AUC amounted to 0.908 and the IC50 was above 2000 nM.

In the case of SKG-IIIa (cervix, adherent), the AUC worked out at 0.942 and the IC50 is above 2000 nM.

For the cell line SNU-182 (liver, adherent), the AUC amounted to 0.968 and the IC50 is above 2000 nM.

As for SNU-423 (liver, adherent), the AUC is 0.979 and the IC50 was above 2000 nM.

On to SNU-449 (liver, adherent), for which the AUC came to 0.979 and the IC50 was above 2000 nM.

For SUIT-2 (pancreas, adherent), the AUC is 0.92 and the IC50 was above 2000 nM.

On to SW13 (adrenal gland, adherent), for which the AUC stood at 0.94 and the IC50 was above 2000 nM.

For SW780 (bladder, adherent), the AUC was found to be 0.906 and the IC50 is above 2000 nM.

Regarding SW1417 (large intestine, adherent), the AUC came to 0.982 and the IC50 is above 2000 nM.

SiHa (cervix, adherent): the AUC was 0.985 and the IC50 was above 2000 nM.

As for T98G (glioma, adherent), the AUC was determined as 0.922 and the IC50 is above 2000 nM.

T-T (oesophagus, adherent): the AUC is 0.91 and the IC50 was above 2000 nM.

For TGBC11TKB (stomach, adherent), the AUC is 0.991 and the IC50 is above 2000 nM.

For U-118-MG (glioma, adherent), the AUC turned out to be 0.97 and the IC50 is above 2000 nM.

With WM793B (melanoma, adherent), the AUC was found to be 0.936 and the IC50 is above 2000 nM.

For the cell line YAPC (pancreas, adherent), the AUC is 0.965 and the IC50 was above 2000 nM.

As to YKG-1 (glioma, adherent), the AUC was determined as 0.89 and the IC50 is above 2000 nM.

As a reminder, the IC50 is the concentration needed to halve the response being measured.
